Measurements: PubChem BioAssay (NCI)
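Assay format: 96-well plates, 48-hour exposure. The concentration for 50% growth inhibition is given as GI50. TGI is the concentration that stops growth completely.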

These molecules were tested on NCI-H322M lung (assay: NCI anticancer screen, dose series, 48 h).
`COc1cc2cc(C(=O)N3C[C@@H](CCl)c4c3cc(OC(=O)N(C)CCSSCCN3CCOCC3)c3ccccc43)[nH]c2c(OC)c1OC` was tested, and the GI50 was 0.298 µM and the TGI was 1.19 µM.
`O=C(CSc1nnc(-c2ccc(-c3nc4ccc(Cl)cc4[nH]3)cc2)o1)Nc1ccc(Cl)cc1` was tested, and the GI50 was 3.31 µM and the TGI was 15.5 µM.
`COc1ccc2[nH]cc(-c3cc4nc(-c5cn(C)c6ncccc56)cc(N)n4n3)c2c1` showed a GI50 of 4.9 µM and a TGI of 19.4 µM.
For `Cc1ccc(-c2nc(C#N)c(S(=O)(=O)N3CCN(S(=O)(=O)c4ccccc4)CC3)o2)cc1`, the GI50 was > 100 µM and the TGI was > 100 µM.
